Laboratory results published in PubChem BioAssay (NCI).
Where “and” joins values, the source holds several entries; their conditions need not be identical. Equal entries are not always repeated.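 Compound exposure: 48 hours, 5 concentrations, 96-well plates. The concentration for 50% growth inhibition is given as GI50. Definition used: TGI = concentration required for complete inhibition of growth.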 Bridge positions count the residues as written; N and C are the ends. Peptide text beside a SMILES is read from it. * marks the point of attachment. Cbz = O=C(OCc1ccccc1)*

Each molecule was assayed on NCI-H322M lung (assay: NCI tumour cell line growth inhibition, 48 h).

First: c1csc(-c2csc(-c3ccsc3)c2)c1
Second: Cc1cc(O)ccc1C1(c2ccc(F)cc2)OC(=O)c2ccccc21 (stereo not given)
The TGI of the first is higher: > 100 µM for the first, 7.39 µM for the second.

Compared with `CCCCCCCCCCCCCP(=O)(NCC(N)=O)OCC` (stereo not given), `CC/C=C\C/C=C/C=C1/C(=O)C=C[C@@H]1C/C=C\CCCC(=O)OC` is 2.7-fold lower in TGI: 33.6 µM for the first, 12.6 µM for the second.

`COC(=O)C#CCC1CCCC1C1SCCS1` (stereo not given) and `CC(=O)CC(C)(C)NC(=O)[C@@]1(O)CC[C@H]2[C@@H]3CCC4=CC(=O)CC[C@@H]4[C@H]3CC[C@@]21C` cannot be ordered by TGI: > 100 µM for the first, > 100 µM for the second.

Going from `COc1ccc2c(c1)C(=O)c1c-2c(N2CCNCC2)nc2ccccc12` to `COc1ccc2c(c1)CC1Cc3ccccc3CCN1C2` (stereo not given), the TGI rises from 26.6 µM to > 100 µM.

`COc1ccc(Oc2ccccc2NC(=O)CNC(=O)c2cccc3ccccc23)cc1` and `COc1cc(C(c2cccc3ccccc23)N2C(=O)CCC2C(=O)NCc2ccccc2)cc(OC)c1OC` (stereo not given) cannot be ordered by TGI: > 25 µM for the first, > 100 µM for the second.

Compared with `COc1cc(OC)c2c(O)c(S(=O)(=O)c3ccc(C)cc3)c(=O)oc2c1`, `Cc1ccc(S(=O)(=O)c2ccc([N+](=O)[O-])o2)cc1` is lower in TGI: > 100 µM for the first, 31 µM for the second.

`CCOC(=O)C1=C(C)N2C(=NC3=C(CCC/C3=C\c3ccc(Cl)cc3)C2c2ccc(Cl)cc2)S1` (stereo not given) and `CC(=O)Nc1ccc(C(=O)N2N=C(C)/C(=C/c3cccc([N+](=O)[O-])c3)C2=O)cc1` cannot be ordered by TGI: > 100 µM for the first, > 100 µM for the second.

Compared with `C[C@H]1c2ccccc2CN1CCCOc1cc2c(cc1OCC1CC1)C1(CCCC1)C(N)=N2`, `O=C1CCC2(O)C3Cc4ccc(Oc5nnnn5-c5ccccc5)c5c4C2(CCN3CC2CC2)C1O5` (stereo not given) is higher in TGI: 7.9 µM for the first, > 100 µM for the second.

`COC(=O)C1CCCCNC(=O)CCC(NC(=O)OCc2ccccc2)C(=O)N1` (stereo not drawn) (Cbz-Glu-Lys-OMe; lactam 1-2; configuration not given here) and `O=C(NCC(=O)N1CCOC1=O)OCc1ccccc1` cannot be ordered by TGI: > 100 µM for the first, > 100 µM for the second.

`NCCC(=O)NC(Cc1cnc[nH]1)C(=O)O` (stereo not given) and `O=C(O)[C@@H](NS(=O)(=O)c1ccc2ccccc2c1)c1ccccc1` cannot be ordered by TGI: > 100 µM for the first, > 100 µM for the second.

`NS(=O)(=O)c1cccc(-c2ccc3c(NC(=O)C4CC4)n[nH]c3c2)c1` and `CC1=C(C(=O)Nc2ccc(F)c(Cl)c2)C(c2ccccc2O)NC(=O)N1` (stereo not given) cannot be ordered by TGI: > 25 µM for the first, > 100 µM for the second.

First: COc1cc(OC)cc(-n2c(N)c(-c3nc4ccccc4n3C)c3ccc([N+](=O)[O-])cc3c2=O)c1
Second: COc1ccc(-c2ccc(/C=N/n3c(COc4ccccc4Cl)n[nH]c3=S)o2)c([N+](=O)[O-])c1
The TGI of the first is higher: > 100 µM for the first, 56.8 µM for the second.

Compared with `CN(C)Cc1cc(C(=O)/C=C/c2cccc(Cl)c2)cc(CN(C)C)c1O`, `O=C1/C(=C/c2cccc(Br)c2)COc2ccc(O)c(O)c21` is 6.2-fold lower in TGI: 21.2 µM for the first, 3.43 µM for the second.

`C=CCn1c(=O)c2cnc(Nc3ccc(N4CCN(C)CC4)cc3)nc2n1-c1cccc(C(C)(C)O)n1` and `CN(c1ccc(C#N)c(Cl)c1)C1CCC(NC(=O)c2ccc(N3CCN(C4CN(c5ccc6c(c5)C(=O)N(C5CCC(=O)NC5=O)C6=O)C4)CC3)cc2)CC1` (stereo not given) cannot be ordered by TGI: > 31.5 µM for the first, > 100 µM for the second.

Going from `Cc1cc(NC(=O)c2cnc(N3CCN(CCOCCOCCOCCOCCC(=O)N[C@H](C(=O)N4C[C@H](O)C[C@H]4C(=O)N[C@@H](C)c4ccc(-c5scnc5C)cc4)C(C)(C)C)CC3)cn2)c2ncccc2c1` to `COCCOCOC(C)(C)[C@H](CCOC(C)=O)O[Si](c1ccccc1)(c1ccccc1)C(C)(C)C`, the TGI rises from 19.8 µM to 79.2 µM (4-fold).

Compared with `ONC1=Nc2ccccc2OCc2cc(Br)c(Br)cc2COc2ccccc2N=C1NO`, `Cc1cc(S(=O)(=O)Nc2nc3ccccc3n2-c2ccccc2)c(S)cc1Cl` is higher in TGI: 30 µM for the first, > 100 µM for the second.

`C[C@@H]1CC[C@@H](C)[C@](C)(CCc2ccoc2)C/C=C\C=C/1C(=O)O` and `COC1(C)C(=O)N2C1N(C(=O)OCc1ccccc1)CC2(C)C` (stereo not given) cannot be ordered by TGI: > 50 µM for the first, > 100 µM for the second.

Compared with `OCc1ccc(N2CCCC2)cc1Cl`, `Oc1c(Cl)cc(Cl)c2cccnc12` is lower in TGI: > 100 µM for the first, 69.5 µM for the second.

Going from `S=C(N/N=C\c1ccccn1)N(Cc1ccccn1)Cc1ccccn1` to `N#CC12C(=O)N3C(=NC(c4ccccc4)NC3c3ccccc3)C1(C#N)C(c1ccccc1)NC1=C2CCCC1` (stereo not given), the TGI rises from 19.3 µM to > 100 µM.

Going from `C=C1C(=O)O[C@H]2[C@H]1CC/C(CNC(=O)/C=C/c1ccccc1)=C\CC[C@@]1(C)O[C@@H]21` to `CCN(CC)C(=O)COc1cc2c(O)c3c(O)c(C)c4c(c13)C(=O)C(C)(OC=CC(OC)C(C)C(OC(C)=O)C(C)C(O)C(C)C(O)C(C)C=CC=C(C)C(=O)N2)O4` (stereo not given), the TGI rises from 21.5 µM to > 100 µM.

Going from `COc1cccc(CC(C)=C(c2ccc(OCCCN(C)C)cc2)c2ccc(OCCCN(C)C)cc2)c1` to `Cc1ccc(N=C2SC(c3ccc(C)cc3)(c3ccc(C)cc3)c3ccccc32)cc1`, the TGI rises from 2.43 µM to > 100 µM.

`O=NN(CCCl)C(=O)NC1CCC(=O)NC1=O` (stereo not given) and `CCOC(=O)c1c(N2CCOCC2)[nH]c(=O)c(C(c2cccs2)c2c(O)c(C(=O)OCC)c(N3CCOCC3)[nH]c2=O)c1O` cannot be ordered by TGI: > 1250 µM for the first, > 100 µM for the second.

Going from `COc1nc(OC)nc(-c2cccc(F)c2)n1` to `COc1cc(/C=C2\Cc3cc(OC)c(OC)cc3C2=O)cc(OC)c1`, the TGI rises from 35.7 µM to > 100 µM.

`CSCCCNC(=O)c1csc(-c2csc(CCNC(=O)CNC(=O)CNC(=O)CNC(=O)OC(C)(C)C)n2)n1` and `CCNc1ncnc2c1nnn2CC` cannot be ordered by TGI: > 100 µM for the first, > 100 µM for the second.

For `N#CC(C#N)=C(N)/C(C#N)=C/c1ccc2[nH]ccc2c1`, the TGI was > 100 µM.

Compared with `COc1ccc2c(c1)C(=O)c1c-2c(N2CCNCC2)nc2ccccc12`, `COc1ccc(-c2ccc(/C=N/n3c(COc4ccccc4Cl)n[nH]c3=S)o2)c([N+](=O)[O-])c1` is 1.9-fold higher in GI50: 11.2 µM for the first, 21.5 µM for the second.

First: COc1ccc(Oc2ccccc2NC(=O)CNC(=O)c2cccc3ccccc23)cc1
Second: COc1cccc(CC(C)=C(c2ccc(OCCCN(C)C)cc2)c2ccc(OCCCN(C)C)cc2)c1
The GI50 of the first is 1.6-fold higher: 1.24 µM for the first, 0.775 µM for the second.

`CCOC(=O)C1=C(C)N2C(=NC3=C(CCC/C3=C\c3ccc(Cl)cc3)C2c2ccc(Cl)cc2)S1` (stereo not given) and `CC1=C(C(=O)Nc2ccc(F)c(Cl)c2)C(c2ccccc2O)NC(=O)N1` (stereo not given) are within 1.5-fold of each other in GI50: 18.6 µM for the first, 19.6 µM for the second.

Going from `C[C@H]1c2ccccc2CN1CCCOc1cc2c(cc1OCC1CC1)C1(CCCC1)C(N)=N2` to `C=C1C(=O)O[C@H]2[C@H]1CC/C(CNC(=O)/C=C/c1ccccc1)=C\CC[C@@]1(C)O[C@@H]21`, the GI50 rises from 2.2 µM to 9.87 µM (4.5-fold).

Compared with `NS(=O)(=O)c1cccc(-c2ccc3c(NC(=O)C4CC4)n[nH]c3c2)c1`, `O=C1/C(=C/c2cccc(Br)c2)COc2ccc(O)c(O)c21` is lower in GI50: > 25 µM for the first, 1.66 µM for the second.

First: Cc1cc(NC(=O)c2cnc(N3CCN(CCOCCOCCOCCOCCC(=O)N[C@H](C(=O)N4C[C@H](O)C[C@H]4C(=O)N[C@@H](C)c4ccc(-c5scnc5C)cc4)C(C)(C)C)CC3)cn2)c2ncccc2c1
Second: CN(c1ccc(C#N)c(Cl)c1)C1CCC(NC(=O)c2ccc(N3CCN(C4CN(c5ccc6c(c5)C(=O)N(C5CCC(=O)NC5=O)C6=O)C4)CC3)cc2)CC1 (stereo not given)
The GI50 of the first is lower: 3.74 µM for the first, > 100 µM for the second.

Going from `OCc1ccc(N2CCCC2)cc1Cl` to `Oc1c(Cl)cc(Cl)c2cccnc12`, the GI50 falls from 66.2 µM to 4.52 µM (15-fold).

`CC/C=C\C/C=C/C=C1/C(=O)C=C[C@@H]1C/C=C\CCCC(=O)OC` was tested, and the GI50 was 3.27 µM.

For `C=CCn1c(=O)c2cnc(Nc3ccc(N4CCN(C)CC4)cc3)nc2n1-c1cccc(C(C)(C)O)n1`, the GI50 was 0.341 µM and 0.334 µM.
